# According to PubChem BioAssay AID360 (National Center for Advancing Translational Sciences (NCATS), 2006):
# In all, about 48,000 compounds went through this assay and about 550 (1.1%) were called active. Roughly 4% stayed inconclusive and do not appear here. No stated cut-off is given here; in the data, active means potency below about 15 µM; inconclusive means mostly about 16 µM to 33 µM; inactive means weaker than that. This is one part of the list.
# Target: Lysosomal acid glucosylceramidase (Homo sapiens) (UniProt P04062)
# Assay: Glucocerebrosidase;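 further: the screen sought inhibitors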
# Settings: purified enzyme, resorufin glucoside fluorescence (screen aimed at inhibitors), 20 min
# How it was run: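 Compounds titrated against 0.2 nM normal enzyme, 30 uM resorufin beta-D-glucopyranoside substrate, citrate/phosphate buffer with taurocholate and tween-20, pH 5.9. Reaction ran 20 min at room temperature; fluorescence (Ex 548/Em 600) gave AC50.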
# Potency means the concentration at half of the fitted maximal effect.
# UniProt P04062, sequence (P04062 whole entry, looked up): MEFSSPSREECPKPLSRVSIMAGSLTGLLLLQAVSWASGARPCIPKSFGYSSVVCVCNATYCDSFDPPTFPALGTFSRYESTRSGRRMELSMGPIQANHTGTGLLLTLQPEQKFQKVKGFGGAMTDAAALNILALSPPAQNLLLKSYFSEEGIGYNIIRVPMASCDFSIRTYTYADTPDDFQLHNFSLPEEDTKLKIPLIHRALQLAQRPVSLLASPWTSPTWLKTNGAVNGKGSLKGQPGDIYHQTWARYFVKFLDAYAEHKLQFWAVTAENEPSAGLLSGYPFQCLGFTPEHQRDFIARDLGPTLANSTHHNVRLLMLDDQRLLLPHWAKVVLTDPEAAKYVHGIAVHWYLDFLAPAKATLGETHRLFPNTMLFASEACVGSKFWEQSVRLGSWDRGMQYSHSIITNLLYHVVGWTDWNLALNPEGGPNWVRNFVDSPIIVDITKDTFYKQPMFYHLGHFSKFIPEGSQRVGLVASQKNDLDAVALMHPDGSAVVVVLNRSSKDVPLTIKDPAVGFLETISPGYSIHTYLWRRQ
row,Compound,Potency
1,O=C(Nc1ccccc1C(=O)N1CCOCC1)C1CC(=O)N(C2CCCC2)C1 (configuration not stated),inactive: > 76.9 µM
2,CCN1CCN(C(=O)c2cc3c(=O)n4ccccc4nc3n2Cc2ccccc2)CC1,inactive: > 76.9 µM
3,COc1ccc(CCNS(=O)(=O)c2ccc(C(=O)NCc3ccco3)cc2)cc1OC,inactive: > 76.9 µM
4,COc1ccc(N(CC(=O)Nc2cc(C(=O)O)ccc2C)S(=O)(=O)c2c(C)noc2C)cc1,inactive: > 76.9 µM
5,CCOC(=O)C1CCc2sc(N)c(C#N)c21 (configuration not stated),inactive: > 76.9 µM
6,CC1CCCN(c2oc(-c3cccc4ccccc34)nc2C#N)C1 (configuration not stated),inactive: > 15.4 µM
7,COc1ccc(NCc2nnc(SCC#N)n2-c2ccccc2OC)cc1,inactive: > 76.9 µM
8,O=C(NC(NCCCN1CCOCC1)(C(F)(F)F)C(F)(F)F)C1CCCCC1,inactive: > 76.9 µM
9,CC(C)NC(=O)c1cc(-c2ccco2)on1,inactive: > 76.9 µM
10,Cc1nn(CC(=O)Nc2ccc3c(c2)oc2ccccc23)c(=O)c2ccccc12,inactive: > 76.9 µM
11,CCOC(=O)C1CCN(c2nc3cc(OC)ccc3cc2C#N)CC1,inactive: > 76.9 µM
12,Cc1cccc(C(=O)Nc2ncc(CN3CCOCC3)s2)c1,inactive: > 76.9 µM
13,OCCc1ccc(-c2ccc(Cl)cc2)o1,inactive: > 76.9 µM
14,CCc1c(C)nc2ncnn2c1N1CCC(C(=O)N2CCN(c3ccc(F)cc3)CC2)CC1,inactive: > 76.9 µM
15,CCN(CC)S(=O)(=O)c1ccc(NC(=O)C2COc3ccccc3O2)cc1 (configuration not stated),inactive
16,O=C(NCCc1ccc(Cl)cc1)C1CCN(S(=O)(=O)N2CCC3(CC2)OCCO3)CC1,inactive: > 76.9 µM
17,O=C(CSc1nnc(-c2ccccn2)n1Cc1ccccc1)N1CCCC1,inactive: > 76.9 µM
18,Cc1ccccc1S(=O)(=O)Nc1nc2ccccc2nc1N1CCOCC1,inactive: > 76.9 µM
19,O=C(Nc1ccc2c(c1)OCCO2)C1CCCN(S(=O)(=O)c2cccs2)C1 (configuration not stated),inactive: > 76.9 µM
20,O=C(CSc1nnc(-c2ccccc2)n1Cc1ccccc1)N1CCCC1,inactive: > 76.9 µM
21,COc1nc(-c2ccccc2)ccc1-c1noc(-c2cccs2)n1,inactive
22,COc1cccc(-n2cc3c(c2-c2ccccc2)c(=O)n(C)c(=O)n3C)c1,inactive: > 76.9 µM
23,COC(=O)c1cc(=O)n(C2CC2)c(=NC2CC2)s1,inactive: > 76.9 µM

row,Compound,Potency
1,CN(CC(=O)O)S(=O)(=O)c1cccs1,inactive: > 76.9 µM
2,CCOC(=O)CN1C(=O)C(C)(C)Oc2ccc(C(=O)NC(C)(C)CC)cc21,inactive: > 76.9 µM
3,O=C(Cn1cnc2c(nnn2Cc2ccc(Cl)cc2)c1=O)NC1CCCC1,inactive: > 76.9 µM
4,O=C(NCc1ccccc1)C1CC2CCCC(C1)C2=O (configuration not stated),inactive: > 76.9 µM
5,Cc1ccc(-c2nc3nc4ccccc4nc3n2Cc2ccco2)cc1,inactive: > 76.9 µM
6,Cn1ccnc1C(=O)c1cc(=O)c2ccccc2o1,inactive: > 76.9 µM
7,CCN(CC)CCCNC(=O)c1cc(-c2ccc(Cl)cc2)on1,inactive: > 76.9 µM
8,Cn1c(=O)[nH]c(=O)c2c1nc(N1CCCCC1)n2CCCSc1nc2ccccc2s1,inactive
9,CCCn1cnc2c(c1=O)c1nc3ccccc3nc1n2CCc1ccccc1,active: 7.01 µM
10,Cc1cc(NC(=O)C23CCC(C)(c4nc5cc(Cl)c(Cl)cc5nc42)C3(C)C)no1 (configuration not stated),inactive: > 76.9 µM
11,Cc1ccc(-n2ncc3c(=O)n(CC(=O)NCc4ccco4)cnc32)cc1,inactive: > 76.9 µM
12,CCOC(=O)C1=C(C)NC(C)=C(C(=O)OCC)C1c1cc2ccc(C)cc2[nH]c1=O,inactive: > 76.9 µM
13,CCCC(=O)Nc1cc(C)c(NC(=O)c2ccccn2)cn1,inactive: > 76.9 µM
14,CCc1c(C)[nH]c2ccccc2c1=O,inactive: > 76.9 µM
15,Cc1ccc(Cn2ccc(NC(=O)c3cc(-c4cccc(Cl)c4)on3)n2)cc1,inactive: > 76.9 µM
16,COC(=O)c1ccccc1CCC(C)=O,inactive: > 76.9 µM
17,CCCCNC(=O)CC1N=C2c3ccccc3N=C(SCC(=O)Nc3cccc(OC)c3)N2C1=O (configuration not stated),inactive: > 76.9 µM
18,Cc1cc(NC(=O)CSc2nnc(COc3ccccc3)n2Cc2ccco2)no1,inactive: > 76.9 µM
19,O=C(c1ccco1)N(Cc1cccs1)C1CCS(=O)(=O)C1 (configuration not stated),inactive: > 76.9 µM
20,COC(=O)CSc1nc(NC(C)C)nc(N2CCOCC2)n1,inactive: > 76.9 µM
21,O=C1OCCC1Sc1nnc(-c2ccco2)o1 (configuration not stated),inactive: > 76.9 µM
22,CCCCc1c(C(=O)O)cc(OC)cc1C(=O)O,inactive: > 76.9 µM
23,COC(=O)c1ccccc1NC(=O)c1cnc2sccn2c1=O,inactive: > 76.9 µM

row,Compound,Potency
1,CCCc1cc(=O)n2[nH]cnc2n1,inactive: > 76.9 µM
2,CC1CCN(C(=O)C2CCN(CCCc3ccccc3)CC2)CC1,inactive: > 76.9 µM
3,CCN(CC)c1ccc2cc(NC(=O)CCC(=O)O)c(=O)oc2c1,inactive: > 76.9 µM
4,O=C(CSc1nc2ccc(S(=O)(=O)N3CCOCC3)cc2[nH]1)N1CCOCC1,inactive: > 76.9 µM
5,CN1C(=O)c2ccc(C(=O)NCc3ccccc3)cc2C1=O,inactive: > 76.9 µM
6,Cc1ccc2[nH]c(=O)c(CN(CCO)C(=O)NCc3ccccc3)cc2c1,inactive: > 76.9 µM
7,Cc1cccc(NC(=O)CCCCCN2C(=O)c3ccccc3C2=O)n1,inactive: > 76.9 µM
8,Cc1nnc(NC(=O)Cc2ccc(OCc3c(C)noc3C)cc2)s1,inactive
9,Cn1c(C(=O)NCCCN2CCN(c3ccccc3F)CC2)cc2c(=O)[nH]c3ccccc3c21,inactive: > 76.9 µM
10,O=C(CSc1nnc(-c2cc3ccccc3cc2O)n1Cc1ccco1)c1ccc(F)cc1,inactive: > 76.9 µM
11,Cc1ncoc1C(=O)Nc1ccccc1C(N)=O,inactive: > 76.9 µM
12,CN(c1ccc(C(=O)NCc2ccccc2)cc1)S(C)(=O)=O,inactive: > 76.9 µM
13,CCCCS(=O)(=O)NC1=NCN(CC)CN1,inactive: > 76.9 µM
14,CCOc1cc2[nH]c(=O)n(CCCCC(=O)NC3CCCCC3)c(=O)c2cc1OCC,inactive: > 76.9 µM
15,CCOC(=O)N1CCN(C(=O)C(CC(C)C)NC(=O)C2CCCCC2)CC1 (configuration not stated),inactive: > 76.9 µM
16,COC(=O)c1cc(NC(=O)CN2C(=O)CSC2=O)ccc1Cl,inactive: > 76.9 µM
17,CC1CCN(S(=O)(=O)c2cc(Cl)ccc2Br)CC1,inactive: > 76.9 µM
18,CN(Cc1ccccc1)C(=O)c1cc(-c2ccc(Br)cc2)on1,inactive: > 76.9 µM
19,O=C(CCc1nc2ccccc2c(=O)[nH]1)OCc1nnc(-c2ccccc2)o1,inactive: > 76.9 µM
20,Cc1cccc2c(=O)cc(C)n(CC(=O)N3CCOCC3)c12,inactive: > 76.9 µM
21,CCCNC(=O)C(NS(=O)(=O)c1cccc2nsnc12)c1ccccc1 (configuration not stated),inactive: > 76.9 µM
22,CC(C#N)Sc1nc2ccccc2c(=O)n1-c1ccccc1 (configuration not stated),inactive: > 76.9 µM
23,Cc1cc(C)nc(N2CCC(C(=O)NCc3cccc(C(F)(F)F)c3)CC2)n1,inactive: > 76.9 µM

row,Compound,Potency
1,Cc1occc1-c1nnc(SCC(=O)c2ccccc2)n1CC1CCCO1 (configuration not stated),inactive: > 76.9 µM
2,Cc1cc(Cl)c(S(=O)(=O)Nc2ccc3c(c2)OCCO3)cc1OCC(N)=O,inactive: > 76.9 µM
3,Cc1occc1C(=O)Nc1cccc(C(=O)NCc2ccccc2)c1,inactive: > 76.9 µM
4,CC(=O)c1cccc(NC(=O)NCc2cccs2)c1,inactive: > 76.9 µM
5,CCC(=O)Nc1ccc(NC(=O)c2cccc(OC)c2)nc1,inactive: > 76.9 µM
6,O=C1c2ccccc2C(=O)N1c1n[nH]c(CCc2ccccc2)n1,inactive: > 76.9 µM
7,COc1ccc(NC(C)=O)cc1NC(=O)CSc1nnc(-c2ccccn2)n1C,inactive: > 76.9 µM
8,Cc1cc(=O)oc2cc(OCC(O)CN3CCN(c4ccc(F)cc4)CC3)ccc12 (configuration not stated),inactive: > 76.9 µM
9,O=c1[nH]cc(COCc2ccccc2)c(=O)[nH]1,inactive: > 76.9 µM
10,COc1cc(C2c3c(-c4ccccc4)n[nH]c3C(=O)N2c2ccccc2)ccc1O (configuration not stated),inactive
11,O=C(Oc1cccc(NC(=O)c2ccco2)c1)c1cccc(S(=O)(=O)N2CCCC2)c1,inactive
12,Cc1ccc(S(=O)(=O)NC(CC(=O)NC2CCCC2)c2ccco2)cc1 (configuration not stated),inactive: > 76.9 µM
13,COc1cccc(OCC(O)CO)c1 (configuration not stated),inactive: > 76.9 µM
14,Cc1cc(C)nc(SCCc2ccncc2)n1,inactive: > 76.9 µM
15,COc1cc(SC)ccc1C(=O)NCCCOC(C)C,inactive: > 76.9 µM
16,O=C(NC1=NCCS1)Nc1ccccc1,inactive: > 76.9 µM
17,COc1ccc(S(=O)(=O)N2CCCN(Cc3cccc(F)c3)CC2)cc1,inactive: > 76.9 µM
18,CC1Cc2nc(SCC(=O)Nc3ccc(F)cc3)n(C)c(=O)c2S1 (configuration not stated),inactive: > 76.9 µM
19,CCn1c(SCC(=O)C(C)(C)C)nnc1-c1cnccn1,inactive: > 76.9 µM
20,Cc1c(C(=O)NCc2ccc3c(c2)OCO3)oc2ccc(S(=O)(=O)N3CCCCC3)cc12,inactive: > 76.9 µM
21,COc1ccc(Nc2nc3c(c(=O)n(C)c(=O)n3C)n2CCO)cc1,inactive: > 76.9 µM
22,CC1CCN(C(=O)CN(C)S(=O)(=O)c2cccc3nsnc23)CC1,inactive: > 76.9 µM
23,N#Cc1nc(COc2ccccc2)oc1N1CCN(Cc2ccccc2)CC1,inactive: > 76.9 µM
